According to PubChem BioAssay AID1159614 (National Center for Advancing Translational Sciences (NCATS), 2016):
Screen size: about 45,000 compounds; about 65 (0.1%) were called active. The call rests on the fitted dose curve; in most records, active means well fitted activation curve with a large enough effect; inconclusive means small, poorly fitted or top-dose-only effect; inactive means no such curve, though single readings can be large or run the other way. The list shows a part of the results.

target: Galactocerebrosidase (Homo sapiens) (UniProt P54803); assay: A Novel Cell-Based Assay to Identify Small Molecules for B -Galactocerebrosidase; settings: 145M-Twi-hGALC-G270D cells (Twitcher mouse brain line with human GALC G270D), HMU-beta-Gal fluorescence, 48 h; series mostly up to 57.5 µM; activation: at the top concentration; further: 0% is about no effect; nearly all actives have a fitted effect of over 65% in size
Sequence of UniProt P54803 (P54803 whole entry, looked up): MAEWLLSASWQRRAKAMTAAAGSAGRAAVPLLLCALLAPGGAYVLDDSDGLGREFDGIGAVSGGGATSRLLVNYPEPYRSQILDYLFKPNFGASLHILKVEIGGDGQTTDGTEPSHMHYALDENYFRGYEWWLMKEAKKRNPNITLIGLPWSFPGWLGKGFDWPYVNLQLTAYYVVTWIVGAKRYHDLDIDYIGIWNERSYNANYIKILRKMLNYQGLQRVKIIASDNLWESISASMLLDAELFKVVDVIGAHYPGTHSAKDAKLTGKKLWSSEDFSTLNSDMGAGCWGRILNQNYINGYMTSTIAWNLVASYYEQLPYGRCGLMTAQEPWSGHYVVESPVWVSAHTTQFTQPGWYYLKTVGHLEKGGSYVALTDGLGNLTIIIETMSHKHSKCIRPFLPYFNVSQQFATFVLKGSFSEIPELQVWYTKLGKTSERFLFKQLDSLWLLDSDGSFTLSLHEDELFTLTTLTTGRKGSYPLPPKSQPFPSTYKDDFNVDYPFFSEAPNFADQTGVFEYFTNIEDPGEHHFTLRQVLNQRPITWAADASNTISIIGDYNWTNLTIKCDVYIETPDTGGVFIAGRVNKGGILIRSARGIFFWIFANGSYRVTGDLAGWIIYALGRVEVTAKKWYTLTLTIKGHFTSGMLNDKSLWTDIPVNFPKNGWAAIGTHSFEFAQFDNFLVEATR
How it was run: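 Mutant human GALC (G270D), stably expressed in a Twitcher mouse brain cell line lacking endogenous GALC, is measured in live-treated cells via 6-hexadecanoylamino-4-methylumbelliferyl-β-galactoside hydrolysis (0.1 mM final, pH 5.2) with fluorescent detection.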

activation, inactive:
CCOc1ccc(-c2cn3c(n2)sc2cc(C(=O)NCCCN(CC)CC)ccc23)cc1 -15.2%, CCN(CC)CCn1c2c(c(SCC(=O)Nc3cccc(C(F)(F)F)c3)nc1=O)CCC2 4.48%, CCOC(=O)C1=C(CN2CCN(c3cccc(OC)c3)CC2)NC(=O)NC1c1ccc(OC)cc1 (stereo unspecified) -12.9%, Cn1c(=O)c2c(n3ncnc13)NC(=O)CC2c1cccc(F)c1 (stereo unspecified) 2.83%, COc1ccc(NS(=O)(=O)c2ccc3c(c2)CC(C)N3C(C)=O)c(OC)c1 (stereo unspecified) -4.09%, C=Cc1ccc(CSc2nnc(C)n3c2cc2occc23)cc1 -12.8%, Cc1ccc(-n2c(=O)c3c(cnn3C)n(CC(=O)Nc3c(C)cccc3C)c2=O)cc1 -9.23%, COc1ccc(NC(=O)c2oc3c(c2C)-c2nn(Cc4ccccc4Cl)cc2CC3)cc1OC -20.6%, Cc1ccc(C(=O)Nc2nc(-c3nnn(-c4cccc(Cl)c4C)c3C)ns2)cc1C -14%, COc1cccc(-c2nc(CS(=O)(=O)CC(=O)NCCc3ccc(OC)c(OC)c3)c(C)o2)c1 -19.5%, CC(=O)OCc1cnc(C)c2oc(=O)c(C(=O)Nc3ccc(C)cc3Cl)cc12 -16.4%, COc1ccc(-c2coc3c2c(C)cc2oc(=O)c(C)c(C)c23)cc1 -12.7%, CC1CCC(Nc2ncnc3onc(-c4ccc(Cl)cc4)c23)CC1 (stereo unspecified) -19.9%, Cc1ccccc1NC(=O)CSc1nc2ccc(NC(=O)c3ccccc3)cc2s1 -2.21%, COc1ccc(NC(=O)C2=C(C)C(=O)OC23CCN(C(C)C)CC3)cc1Cl 3.71%, Cc1ccccc1CN1C(=O)C(O)(CC(=O)c2ccccc2)c2cc(Cl)ccc21 (stereo unspecified) -24%, Cc1cccc(OCC(=O)Nc2ccc3nc(Nc4cccc(C(F)(F)F)c4)cc(C)c3c2)c1 1.82%, Cc1ccc(CNC(=O)c2oc3ccc(S(=O)(=O)N4CCC(C)CC4)cc3c2C)cc1 -7.58%, CCCCNC(=O)c1cc2c(=O)n3cccc(C)c3nc2s1 -7.65%, COc1ccccc1CNC(=O)c1ccc2c(c1)N(Cc1cc(C)ccc1C)C(=O)c1ccccc1S2 -14%, Cc1ccc(-n2ncc(C(=O)N3CCN(Cc4ccccc4)CC3)c2C2CCN(C(=O)OC(C)(C)C)CC2)cc1 -11.4%, CC(=O)c1cc(-c2ccccc2)n(CCC(=O)Nc2ccc(C(C)C)cc2)c1C -11.4%, COc1ccc(-c2cc(C(F)(F)F)n3nc(C(=O)O)c(Cl)c3n2)cc1OC 7.33%, CCOc1ccc(NC(=O)Cn2cc(C(=O)c3ccc(F)cc3)c(=O)c3cc4c(cc32)OCCO4)cc1 -14.6%, CC(C)(C)OC(=O)N1CCC(c2c(C(=O)NCCN3CCCC3)cnn2-c2ccc(Cl)cc2)CC1 -4.91%, COc1ccc(NC(=O)Cn2cnc3ccc(S(=O)(=O)N4CCC(C)CC4)cc3c2=O)cc1Cl -10.5%
